± gives the standard deviation of the averaged measurements. This is one part of the list.

The experiment deals with PfAP2-I AP2 domain 3 (GST-tagged). Put plainly: gcPBM binding intensity (ln(normalized median fluorescence intensity)); higher = stronger DNA binding. The method, boiled down:
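For binding intensity, the highest Masliner-normalised natural-log median intensity across replicate spots of either probe orientation was taken. Protein bound to the array was stained with Alexa488 anti-GST antibody and scanned at 488 nm. The protein, GST-tagged P. falciparum DNA-binding domains from E. coli at about 25 μg on average, had been applied for 1 h to an Agilent 4 × 180k array of primer-extended double-stranded 36-bp intergenic genomic probes and negative controls.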
In the case of “TACTGTTTAAAATATACACACATAATCAAAAAAAAA [CACACA_site2510]”, the “gcPBM binding intensity (ln)” value was 7.82 ± 0.58.
“TATATATTTACATATTGTACAATATAAAAATAATTA [XGTACX_site19]”: the “gcPBM binding intensity (ln)” value is 7.62 ± 0.18.
In the case of “ATATTTATGTAATGTTTGATTTTTTTTTTATGTGTG [CACACA_negctrl_site1422]”, the “gcPBM binding intensity (ln)” value stood at 7.76 ± 0.26.
As for “ACATATACATACATATGTACATATACATAAATATAT [XGTACX_site1285]”, the “gcPBM binding intensity (ln)” value came to 7.97 ± 0.46.
The result for “CTATACAATAAAAATTGTACATACATATATGTTATA [XGTACX_site5309]” reads 7.61 ± 0.54; that for “AATTTTTCTTTTTTTTGTACAGAATATATATTTTAT [XGTACX_site1419]”, 7.77 ± 0.62.
Turning to “ATATAATTTATGTGCACACACTCCTATTTTTAGCTT [CACACA_site50]”, the “gcPBM binding intensity (ln)” value stood at 10.45 ± 0.042.
As for “AAAAAGTAAAAGAAAGCACACACACCGGTATATATG [CACACA_site9281]”, the “gcPBM binding intensity (ln)” value came out at 7.71 ± 0.69.
The result for “AAAAAAAATTTTATCTGTACACATTTTTTTCTTTTT [XGTACX_site4229]” reads 7.78 ± 0.63; that for “TCGTAATAATATAAATGTACTTTATTAATTAAAAGA [XGTACX_site3416]”, 7.79 ± 0.46.
For the sequence ATAACAAAAATCCTTGTGCACTATTTTAATAGAGTC, the “gcPBM binding intensity (ln)” value amounted to 11.4 ± 0.12.
As for “ACATTGCACCCGTGCACACATAGAAAAATAATTCTT [CACACA_site409]”, the “gcPBM binding intensity (ln)” value is 11.1.
Turning to “GTAGTCCAAAAAAAGCGTACACAGAAAAAAAAAAAA [XGTACX_site4273]”, the “gcPBM binding intensity (ln)” value is 8.56 ± 0.73.
For “TACATCTTACTACTTATAATATAATATAGTATGAAT [TGCATGCA_negctrl_site8]”, the “gcPBM binding intensity (ln)” value amounted to 7.29 ± 0.45.
With “CATTATGATTAAATATGTACATATTATTATATAAAT [XGTACX_site2477]”, the “gcPBM binding intensity (ln)” value was 7.7 ± 0.38.
In the case of “ATGTAATTCTTTTACTTTTTTTTTTTTTTTTTTTTT [CACACA_negctrl_site979]”, the “gcPBM binding intensity (ln)” value stood at 9.195 ± 0.021.
The value for “TTATCATATGTATGCATACACACAAAAAATTATATA [CACACA_site397]” was 7.82 ± 0.32.
For the sequence “CAAACAAATATATGTTGTACTTATTATATATACATA [XGTACX_site2998]”, the “gcPBM binding intensity (ln)” value was determined as 7.67 ± 0.3.
With “ATAAATGAGCCATATTAAATCCGTTACACGGGTGTG [CACACA_negctrl_site1368]”, the “gcPBM binding intensity (ln)” value is 7.26 ± 0.68.
On to “AACGGGTAATGCACAAAAAAAAAAAAATAAAATAAA [TGCATGCA_negctrl_site474]”, for which the “gcPBM binding intensity (ln)” value was 11.4 ± 1.
Consider “AAATTATTTTGTTATCATTATATATAGATTGAATAT [XGTACX_negctrl_site165]”, for which the “gcPBM binding intensity (ln)” value is 7.55 ± 0.47.
The result for “TTCTTTTAAATTAGCTGTACGGTTTTCTACATGCAT [XGTACX_site356]” reads 7.74 ± 0.6; that for “TAATATATATGTATGGCACACACGGATAAATATATA [CACACA_site930]”, 8.42 ± 0.58.
The value for “AAAAAAAATATGAAAACACACATATATAAATAAATA [CACACA_site113]” was 7.58 ± 0.45; that for CATGCCTTTAAAAAGGTGCAAACATTTTCACAAACA was 10.4 ± 0.35.
Regarding “AACAAAATAAGACACACACACAAATGTACCTATATA [CACACA_site7189]”, the “gcPBM binding intensity (ln)” value was 7.96 ± 0.47.
For “TCTTTTTTAAATAAAAGTACAAAAAAAAATAAAAAA [XGTACX_site2670]”, the “gcPBM binding intensity (ln)” value worked out at 8 ± 0.27.
As for “CGAATAAATATATGTAGTACATGTTGTAGATAATTT [XGTACX_site1218]”, the “gcPBM binding intensity (ln)” value turned out to be 8.01 ± 0.48.
The result for “TCTTTCTATTAAACATGTACTTGTCTAAAGACATAA [XGTACX_site8564]” reads 7.89 ± 0.55.
On to “TATATATATTTAAATTGTACATATATTATTCATATG [XGTACX_site911]”, for which the “gcPBM binding intensity (ln)” value stood at 7.87 ± 0.58.
As for “AATAATATATATTACTGTACTAATATAAGGGACATC [XGTACX_site3744]”, the “gcPBM binding intensity (ln)” value stood at 8.14 ± 0.41.
“TTGTCAAAAATTACACACATAAATGAATAAATAAAT [XGTACX_negctrl_site541]”: the “gcPBM binding intensity (ln)” value was 7.59 ± 0.57.
The result for “ATTTATGAAAAAAATACATGCATGTCCATATAAATT [TGCATGCA_site505]” reads 7.8 ± 0.72; that for “TTATTTTCTACAAATTGTACATATTTTTTACTACTC [XGTACX_site1394]”, 8.22 ± 0.47.
The result for “ACATATATATATATTACACACACACTAATAAAATAA [CACACA_site7920]” reads 8.14 ± 0.33; that for “TTTCAAGAATTATATAAACACACATACATACACCCA [CACACA_site8592]”, 8.43 ± 0.18; that for “TTTTATAATTTATCTAAAAAAAAATAAAATAAAATG [TGCATGCA_negctrl_site429]”, 7.66 ± 0.36.
The value for “ATAAAATAAAATAAAAGTACATAAATATATATATAT [XGTACX_site6110]” was 9.22 ± 0.085.
With “TTTTTTTTTCTTTGCACACAGATAACTTGAAATTTG [CACACA_site2185]”, the “gcPBM binding intensity (ln)” value came out at 9.21 ± 0.38.
Regarding “ATAAGGATCAGACACAAACACACATATATATATATA [CACACA_site558]”, the “gcPBM binding intensity (ln)” value is 9.36 ± 0.34.
“AAATAATTCATATGTTGTACAGTAATTAAATTTTCT [XGTACX_site6343]”: the “gcPBM binding intensity (ln)” value was determined as 7.68 ± 0.58.
For “ATAATTAATCCAAAATGTACTTACATTTTATATGAA [XGTACX_site8888]”, the “gcPBM binding intensity (ln)” value was found to be 7.72 ± 0.45.
On to “TGTTTTGTTATTTTTATTTATATAAATAAAGCTATA [GTGCAC_negctrl_site88]”, for which the “gcPBM binding intensity (ln)” value was determined as 7.84 ± 0.55.
The result for “ATATATATATTATATGCACACTAATAAGACTATTTA [CACACA_site5880]” reads 9.66 ± 0.11; that for “CATAAATACAGTAACACACACAAAAAAATATGAATA [CACACA_site6066]”, 7.75 ± 0.56; that for “ATATATATATTTTATTGTACAAAAAAAAAAAAAAAA [XGTACX_site6803]”, 8.85 ± 0.21.
“TTGTTATGCATTGGTTGTACATAAGTATAAGTAATT [XGTACX_site5401]”: the “gcPBM binding intensity (ln)” value came to 8.12 ± 0.4.
On to “CCATTATACACAATATGTACATATATATAATCATTT [XGTACX_site7942]”, for which the “gcPBM binding intensity (ln)” value is 8.04 ± 0.43.
With “AAAAAAAAAATATGTACACACATATAAAATACATAA [CACACA_site6869]”, the “gcPBM binding intensity (ln)” value was found to be 7.89 ± 0.27.
The result for “ATAGGATTCTCAAAGTGTACTTGTCTACTGTAGTTT [XGTACX_site4202]” reads 7.62 ± 0.49.
Consider “GAGGAAAAAAAAAAAAGTACATTATATAAGAAAATT [XGTACX_site2610]”, for which the “gcPBM binding intensity (ln)” value was determined as 7.84 ± 0.32.
Turning to “TTAAATATTTATATTTGTACACAATCAATCATACAC [XGTACX_site5793]”, the “gcPBM binding intensity (ln)” value came to 8.2 ± 0.11.
The result for “AATTATAATAATAATAGTACATAAGTATATAAATAA [XGTACX_site2400]” reads 7.69 ± 0.62; that for “TCTTTCTAAATCTTACAAATTACTAAAATATTTATA [CACACA_negctrl_site87]”, 7.49 ± 0.57; that for “AAAAAAAAAAAAAAAAGTACAAATTTAAAAATGTGT [XGTACX_site112]”, 8.68 ± 0.35.
Regarding “TTGGTTTCTTGTTTTTGTACCCATAATTTGTAATAT [XGTACX_site1248]”, the “gcPBM binding intensity (ln)” value is 8.42 ± 0.52.
On to “ATCACATTCCACGGTACACACTAAAAGAAAAATCAG [CACACA_site5907]”, for which the “gcPBM binding intensity (ln)” value stood at 8.29 ± 0.17.

Source of the values: the supplement of paper PMC11417369.
